Consider 89 molecules from PMC4336329 (PLoS ONE, 2015).

Out of some 310,000 compounds screened, about 2,200 (0.71%) showed an effect of 50% or more. Effects have a minus sign here. The list shows a part of the results.

The experiment deals with human ether-à-go-go-related gene (hERG) potassium channel (human, UniProt Q12809). The experiment in a line: primary screen, population patch clamp on CHO cells stably expressing hERG.
Chain of human ether-à-go-go-related gene (hERG) potassium channel (Q12809 whole entry, looked up): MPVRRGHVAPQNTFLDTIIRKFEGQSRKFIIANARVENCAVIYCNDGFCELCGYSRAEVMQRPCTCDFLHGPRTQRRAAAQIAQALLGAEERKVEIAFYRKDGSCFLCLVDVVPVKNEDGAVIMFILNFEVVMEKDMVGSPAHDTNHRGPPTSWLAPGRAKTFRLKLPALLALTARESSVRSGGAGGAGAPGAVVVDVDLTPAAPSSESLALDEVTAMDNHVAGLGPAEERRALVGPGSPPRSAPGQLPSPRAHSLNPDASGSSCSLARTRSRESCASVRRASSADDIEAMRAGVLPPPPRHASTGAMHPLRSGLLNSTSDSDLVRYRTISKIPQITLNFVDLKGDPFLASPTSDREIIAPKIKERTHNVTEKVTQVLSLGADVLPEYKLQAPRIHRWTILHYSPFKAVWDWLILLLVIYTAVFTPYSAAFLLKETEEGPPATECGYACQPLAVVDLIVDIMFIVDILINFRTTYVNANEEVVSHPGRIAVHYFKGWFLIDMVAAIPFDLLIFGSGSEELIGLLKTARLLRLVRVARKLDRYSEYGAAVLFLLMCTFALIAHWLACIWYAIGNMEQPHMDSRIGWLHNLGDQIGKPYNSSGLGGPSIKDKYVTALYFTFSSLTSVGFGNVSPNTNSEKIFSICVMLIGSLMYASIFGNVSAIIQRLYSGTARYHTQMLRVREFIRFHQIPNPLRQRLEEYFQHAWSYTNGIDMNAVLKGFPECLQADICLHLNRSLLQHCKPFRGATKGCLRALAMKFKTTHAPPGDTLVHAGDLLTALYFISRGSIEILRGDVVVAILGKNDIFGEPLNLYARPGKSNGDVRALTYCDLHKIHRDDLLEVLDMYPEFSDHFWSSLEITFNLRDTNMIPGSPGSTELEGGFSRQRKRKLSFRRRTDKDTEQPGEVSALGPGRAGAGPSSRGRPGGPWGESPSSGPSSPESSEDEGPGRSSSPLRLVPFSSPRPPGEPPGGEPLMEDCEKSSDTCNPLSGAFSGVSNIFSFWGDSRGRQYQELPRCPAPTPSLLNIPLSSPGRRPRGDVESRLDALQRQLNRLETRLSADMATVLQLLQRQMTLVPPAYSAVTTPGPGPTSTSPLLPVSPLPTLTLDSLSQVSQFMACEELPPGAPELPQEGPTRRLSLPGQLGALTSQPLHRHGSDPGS
As to `C#Cc1ccc([C@@H]2C=C(C(=O)N3CCOCC3)O[C@H](OCCCCO)C2)cc1`, the “hERG current change (%, negative = inhibition) at 1uM” value amounted to 15.1%. With `O=C1CN(C(=S)NC(=O)c2ccccc2[N+](=O)[O-])CCN1`, the “hERG current change (%, negative = inhibition) at 1uM” value came to 20.7%. Take `CCn1c(C)[n+](CCOC(C)=O)c2cc(Cl)c(Cl)cc21.[I-]`: the “hERG current change (%, negative = inhibition) at 1uM” value is 4.53%. Consider `Cc1cccc(C)c1NS(=O)(=O)c1ccc(F)cc1`, for which the “hERG current change (%, negative = inhibition) at 1uM” value is 7.58%. As for `COc1ccccc1OCC(=O)Nc1ccc(S(=O)(=O)N2CCCC2)cc1`, the figure is 2.95%. As to `O=C(OCC(=O)N1CCN(S(=O)(=O)c2ccc(Cl)cc2)CC1)C1CCC1`, the “hERG current change (%, negative = inhibition) at 1uM” value worked out at 13.6%. As to `Cc1cccc(N2CCN(CC(=O)N(C3CCCC3)C3CCS(=O)(=O)C3)CC2)c1C` (centres unmarked), the “hERG current change (%, negative = inhibition) at 1uM” value turned out to be 3.4%. Next, `Cc1oc2c(C)c3oc(=O)c(CCC(=O)N[C@@H](CC(C)C)C(=O)O)c(C)c3cc2c1C`: 18.4%. On to `Cc1cc(C(=O)NC2CCCC2)c2ccccc2n1`, for which the “hERG current change (%, negative = inhibition) at 1uM” value came out at 12.3%.

For the molecule `CCOc1ccc(OCC)c(NC(=O)C2CCN(S(=O)(=O)c3c(C)noc3C)CC2)c1`, the “hERG current change (%, negative = inhibition) at 1uM” value is 0.823%. Regarding `FC(F)(F)c1cccc(Nc2nc(N3CCOCC3)nc(N3CCOCC3)n2)c1`, the “hERG current change (%, negative = inhibition) at 1uM” value was determined as 17.8%. Regarding `CCCn1nnc(NC(=O)Cc2ccccc2)n1`, the “hERG current change (%, negative = inhibition) at 1uM” value was 10.7%.

On to `Cc1cccc(N(C(=O)CCC(=O)Nc2cc(C)on2)C(C(=O)NC2CCCC2)c2ccncc2)c1` (centres unmarked), for which the “hERG current change (%, negative = inhibition) at 1uM” value is reported as 17.2%.

Turning to `C[N+]1(C)CCN(c2ccccc2)CC1.[I-]`, the “hERG current change (%, negative = inhibition) at 1uM” value is on record as 9.68%. As for `Cc1oc(S(=O)(=O)N2CCCC2)cc1C(=O)Nc1ccccc1`, the figure is 11.1%; as for `Cc1cccc2cc(C(c3nnnn3C3CCCC3)N3CCOCC3)c(=O)[nH]c12` (centres unmarked), 8.2%.

As for `C/C(=N\Nc1nc(N2CCOCC2)nc(N2CCOCC2)n1)c1cccs1`, the “hERG current change (%, negative = inhibition) at 1uM” value was found to be 14.9%. As for `C=CCOc1ccc(C(=O)NC2CCCCC2)cc1`, the figure is 11.7%. Next, `CC(=O)Nc1ccc(S(=O)(=O)N2CCN(Cc3ccccn3)CC2)cc1.O=C(O)C(=O)O`: 6.25%; `COc1ccccc1NC(=O)C1=C(C)NC(=O)NC1c1cccs1` (centres unmarked): 16.2%; `CC(c1ccon1)N(C)Cc1cn(C)nc1-c1cccc(Cl)c1` (centres unmarked): 4.88%. Regarding `CSc1nsc(SC)c1NC(=O)Nc1ccccn1`, the “hERG current change (%, negative = inhibition) at 1uM” value amounted to 0.09%.

Regarding `COCCn1c(C)cc(C(=O)CSc2nnc(-c3cccnc3)n2-c2ccccc2F)c1C`, the “hERG current change (%, negative = inhibition) at 1uM” value turned out to be 12.4%.

Take `C=CCN1C(=O)NC(c2ccc(OC)cc2)(C(F)(F)F)S/C1=C(\C#N)c1nnc(N2CCOCC2)n1-c1ccccc1` (centres unmarked): the “hERG current change (%, negative = inhibition) at 1uM” value is given as -13.2%. Take `O=C(CNC(=O)c1ccccc1)N/N=C/c1ccc([N+](=O)[O-])s1`: the “hERG current change (%, negative = inhibition) at 1uM” value is reported as 7.58%. Next, `Cc1ncoc1C(=O)Nc1ccc(Oc2ccccc2)cc1`: -5.18%; `CC1(C)Cc2c(C#N)c(N)sc(=S)c2CS1`: 4.45%. As for `COC(=O)C1=C(C)N(Cc2ccccc2)C(=NCc2cc(OC)c(OC)c(OC)c2)N[C@H]1c1ccccc1`, the figure is 0.452%; as for `CN(C)CCN=Cc1c(O)n(Cc2ccccc2)c(=O)c2ccccc12`, -6.8%. With `Cc1ccc(NS(=O)(=O)c2ccc(OCC(=O)Nc3cccc([N+](=O)[O-])c3)c(C)c2)cc1`, the “hERG current change (%, negative = inhibition) at 1uM” value is recorded as -3.93%. As for `CC(C)Cn1c(N)c(C(=O)CSc2ccc3c(c2)OCCO3)c(=O)n(C)c1=O`, the figure is 2.23%. In the case of `Cc1ccc(C)c(NC(=O)c2c(Cl)nc3ccccn23)c1`, the “hERG current change (%, negative = inhibition) at 1uM” value is 8.88%. For `Cc1cccc(C(=O)Nc2c(C(=O)N(C)C)cnn2-c2ccccc2)c1`, the “hERG current change (%, negative = inhibition) at 1uM” value is reported as 7.84%.

For `C/C(=N\Nc1ccccn1)c1cccs1`, the “hERG current change (%, negative = inhibition) at 1uM” value worked out at 10.3%.

`Cc1ccc2[nH]cc(/C=C/c3cc[n+](C)cc3)c2c1.[I-]`: the “hERG current change (%, negative = inhibition) at 1uM” value came to 9.99%.

For the molecule `O=C(NC1CCCc2ccccc21)c1ccc(S(=O)(=O)N2CCOCC2)cc1` (centres unmarked), the “hERG current change (%, negative = inhibition) at 1uM” value came to 8.63%. As for `O=C(NCC(c1cccs1)N1CCOCC1)c1cn(-c2ccccc2)nc1-c1ccc(F)cc1` (centres unmarked), the figure is 6.86%; as for `COC(=O)[C@H](C)NC(=O)NC(C)CCc1ccccc1` (some centres unmarked), 5.2%; as for `CCOc1ccccc1N(C)C(=O)c1cc2c(=O)n(CC)c3ccccc3c2s1`, 5.65%. Consider `O=C(CSc1nc(=O)n2ccccc2n1)Nc1ccc2c(c1)OCCO2`, for which the “hERG current change (%, negative = inhibition) at 1uM” value is 5.57%.

In the case of `CC(=O)Nc1ccc(S(=O)(=O)Nc2cc3c(cc2C(C)=O)OCO3)cc1`, the “hERG current change (%, negative = inhibition) at 1uM” value is on record as 12.7%. As for `COC(=O)c1sc(S(=O)(=O)NC(Cc2ccccc2)C(=O)O)c(C(=O)OC)c1C` (centres unmarked), the figure is 13.9%; as for `CC1=C(C(=O)OC(C)C)C(c2ccccc2Cl)CC(=O)N1` (centres unmarked), 8.98%; as for `O=C(Nc1ccccc1)c1ccc(NC(=O)C2CC2)cc1`, 8.74%. Next, `CCOC(=O)C1=C(C)N(C)C(=S)NC1c1cccc(Cl)c1Cl` (centres unmarked): 8.7%; `Oc1ccc(-c2nc3ccccc3s2)c(O)c1`: 14.2%. As for `COC(=O)C1=C(N)Oc2cc(C)[nH]c(=O)c2C1c1ccc(Cl)cc1` (centres unmarked), the figure is -3.06%; as for `CCCCNC(=O)c1ccccc1NC(=O)c1ccccc1N(C)S(C)(=O)=O`, 13.1%. Take `N#CCCN1CCNCC1`: the “hERG current change (%, negative = inhibition) at 1uM” value stood at 11.7%. Next, `COc1cccc(OCC(Cn2cnc3ccccc32)OC(C)=O)c1` (centres unmarked): -8.19%; `CS(=O)(=O)N1CCc2cc(C(=O)Nc3ccccc3Br)ccc21`: 11.5%; `CCC1CCCCN1Cc1cc(OC)c(O)c([N+](=O)[O-])c1` (centres unmarked): 11.7%. As for `CCN(CC)S(=O)(=O)c1cccc(C(=O)Nc2ccccc2)c1`, the figure is -0.175%; as for `COc1sc(SC)cc1/C=N/NC(=O)c1ccncc1`, 18.9%. As for `OC(Cn1c2ccccc2c2ccccc21)C[n+]1ccccc1.[O-][Cl+3]([O-])([O-])[O-]` (centres unmarked), the figure is 5.52%; as for `c1cncc(CSc2nnc3ccc(-c4cccs4)nn23)c1`, 0.906%.

As for `COc1ccc(CNC(=O)CCC(=O)N2CCN(S(=O)(=O)c3ccc(Cl)cc3)CC2)cc1`, the “hERG current change (%, negative = inhibition) at 1uM” value is 12.9%. Next, `Brc1c(-c2ccccc2)nc2n1Cc1ccccc1-2`: 17.5%; `Cc1ccc(N2C(=O)NC(=O)/C(=C/c3cnn(-c4ccc(C)cc4)c3)C2=O)cc1`: 16.3%; `CCOc1cc(/C=N/NC(=O)c2ccccc2-n2cccc2)ccc1O`: 3.65%. Take `CCS(=O)(=O)N1CCCC(C(=O)NCCCN2CCCC2=O)C1` (centres unmarked): the “hERG current change (%, negative = inhibition) at 1uM” value is given as 9.12%. As for `Cc1ccc(S(=O)(=O)c2cc3ccccc3nc2N)cc1`, the figure is 13.5%; as for `CCc1nccn1CCC(=O)NC1CCCc2c1cnn2-c1ccc(F)cc1F` (centres unmarked), 16%; as for `Cc1cc(-c2nnc(CCC(=O)NC(c3ccccc3)c3ccccc3)o2)no1`, 20.9%.

As for `CC(OC(=O)CCN=C1NS(=O)(=O)c2ccccc21)C(=O)Nc1ccc(S(N)(=O)=O)cc1` (centres unmarked), the “hERG current change (%, negative = inhibition) at 1uM” value was 9.22%.

For the molecule `O=C(O)C(=O)O.O=[N+]([O-])c1ccc(OCCN2CCNCC2)cc1`, the “hERG current change (%, negative = inhibition) at 1uM” value is -52.2%. As to `O=C(CSc1ncccn1)NC1CCCc2ccccc21` (centres unmarked), the “hERG current change (%, negative = inhibition) at 1uM” value is listed as -4.43%.

For the molecule `CN1CCc2c(sc(NC(=O)c3ccco3)c2C(N)=O)C1.Cl`, the “hERG current change (%, negative = inhibition) at 1uM” value amounted to 0.183%. In the case of `Cc1ccn2cc(-c3ccc4c(c3)NC(=O)CO4)nc2c1.Cl`, the “hERG current change (%, negative = inhibition) at 1uM” value is 9.06%. For `Cc1ccc(NC(=O)CCCc2ccccc2)nc1`, the “hERG current change (%, negative = inhibition) at 1uM” value is recorded as 5.65%. Next, `O=C(CSc1cccc[n+]1[O-])c1ccccc1Br`: 12%; `CCCC(CCC(=O)Nc1ccc(C(=O)OCC)cc1)C(=O)O` (centres unmarked): 12%. As to `O=S(=O)(Nc1ccccn1)c1cc(Cl)ccc1Cl`, the “hERG current change (%, negative = inhibition) at 1uM” value was determined as 7.72%. Next, `O=C(NCC(c1ccco1)N1CCCC1)c1cccc(NS(=O)(=O)c2ccc(Br)cc2)c1` (centres unmarked): -2.58%; `CCOC(=O)N1CCC(NC(=O)COc2cc(=O)n(C)c3ccccc23)CC1`: 13%. As for `COc1ccccc1-n1c(SCC(=O)Nc2ccccc2F)nc2[nH]ncc2c1=O`, the figure is -11.4%.

Turning to `O=C(NCc1ccncc1)C1CCN(C(=O)c2cccc(Cl)c2)CC1`, the “hERG current change (%, negative = inhibition) at 1uM” value stood at 4.95%. As for `Cc1cc(C)c(S(=O)(=O)c2ccccc2)c(=O)[nH]1`, the figure is 16.6%; as for `O/N=C/c1cccnc1Sc1ccccc1`, 6.86%; as for `O=C(Nc1ccc(N2CCOCC2)cc1)c1cccc(S(=O)(=O)N2CCCC2)c1`, 3.25%. As for `Cn1nc(C(C)(C)C)c([N+](=O)[O-])c1C(=O)N1CCCCCC1`, the figure is 15.5%; as for `CC(=O)c1ccc(OCc2ccccc2)c(C)c1O`, 11.1%. Consider `Cc1cccnc1Nc1nc(-c2ccc(O)c(O)c2)cs1`, for which the “hERG current change (%, negative = inhibition) at 1uM” value was 10.2%. Next, `COCCN(C(=O)C1CC(=O)N(Cc2ccc(C)cc2)C1)c1c(N)n(CC(C)C)c(=O)[nH]c1=O` (centres unmarked): 2.18%; `CSCCC(NC(=O)c1cc([N+](=O)[O-])ccc1Cl)C(=O)O` (centres unmarked): 9.35%.

For the molecule `CCOc1ccc(Nc2nc3c(c(=O)[nH]2)CCC3)cc1`, the “hERG current change (%, negative = inhibition) at 1uM” value came to 6.36%. Next, `Cc1ccc(S(=O)(=O)NCc2nnc(SCC(=O)Nc3cccc(C)c3C)n2C)cc1`: -0.801%. As for `CCC(=O)N1CCc2cc(S(=O)(=O)CCC(=O)NCc3ccco3)ccc21`, the figure is 10.2%; as for `O=C(NCCC1=CCCCC1)C1CCN(S(=O)(=O)c2ccccc2C(F)(F)F)CC1`, 11.9%.
